Assay results from patent US20240262922A1 (Merck KGaA, published 2024).

What was measured:
[1] = molecular target: T1, recombinant human OX40L protein (R&D Systems, cat. #1054-OX) (human, UniProt P23510 51-183); assay: cell-based or functional assay
T1 sequence: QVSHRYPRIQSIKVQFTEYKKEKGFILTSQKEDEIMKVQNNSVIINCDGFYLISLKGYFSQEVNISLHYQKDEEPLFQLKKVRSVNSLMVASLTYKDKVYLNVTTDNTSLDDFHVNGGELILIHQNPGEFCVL

AVI-GST-His6-hOX40L = molecular target: T2, AVI-GST-His6-hOX40L (human, UniProt P23510 51-183); assay: cell-based or functional assay
T2 sequence: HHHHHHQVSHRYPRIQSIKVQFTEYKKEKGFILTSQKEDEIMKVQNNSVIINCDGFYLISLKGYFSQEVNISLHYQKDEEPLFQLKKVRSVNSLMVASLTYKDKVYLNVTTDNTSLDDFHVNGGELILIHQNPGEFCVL

[2] = molecular target: T3, recombinant cynomolgus monkey OX40L (Novoprotein cat. #CP72) (cynomolgus monkey, UniProt P23510 51-183 (human entry), limits assumed); assay: summary of flow cytometry, SPR and BLI
T3 construct: Bought protein; also called cynomolgus OX40L
T3 chain: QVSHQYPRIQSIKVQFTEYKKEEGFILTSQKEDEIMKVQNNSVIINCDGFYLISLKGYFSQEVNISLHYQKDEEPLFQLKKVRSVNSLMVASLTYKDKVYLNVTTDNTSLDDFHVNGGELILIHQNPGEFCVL

[3] = molecular target: T4, full-length human OX40L on the cell surface (human, UniProt P23510 1-183); assay: cellular binding to human OX40L (flow cytometry; cells not given)
T4 construct: also called CHO-S-huOX40L; OX40L on MDDCs
T4 sequence: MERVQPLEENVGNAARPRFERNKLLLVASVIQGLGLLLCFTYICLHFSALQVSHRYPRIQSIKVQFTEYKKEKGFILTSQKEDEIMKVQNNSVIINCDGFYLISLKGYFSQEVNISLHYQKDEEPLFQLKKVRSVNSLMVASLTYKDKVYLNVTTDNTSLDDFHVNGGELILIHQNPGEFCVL

[4] = molecular target: T5, recombinant cynomolgus monkey CD80 (Novoprotein cat. #CP54) (cynomolgus monkey, UniProt A0A2K5V5I3 35-242); assay: SPR steady state, Biacore T200; binder captured by anti-human IgG Fc, CD80 in solution
T5 construct: also called cynomolgus CD80
T5 sequence: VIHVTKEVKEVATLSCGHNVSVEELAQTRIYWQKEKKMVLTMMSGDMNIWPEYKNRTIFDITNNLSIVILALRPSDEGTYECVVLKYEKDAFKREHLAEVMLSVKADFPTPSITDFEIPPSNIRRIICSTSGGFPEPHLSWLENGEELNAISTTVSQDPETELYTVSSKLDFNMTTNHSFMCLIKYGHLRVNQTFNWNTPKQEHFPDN
Text: (§1) Goat anti-human IgG Fc (Jackson ImmunoResearch Goat anti-human IgG Fc Antibody, cat. #109-005-098), immobilized onto Biacore CM5 sensor chips, was used to capture experimental CTLA4_anti-OX40L fusion proteins or CTLA4-Ig reference proteins via their Fc regions. Recombinant CD80 proteins (human CD80, Novoprotein cat. #CK61; cynomolgus monkey CD80, Novoprotein cat. #CP54) and CD86 proteins (human CD86, Novoprotein . . . #C404) were bound to this surface at a range of concentrations. The response at steady state was measured with a Biacore T200 instrument (GE Healthcare) and plotted against the concentration of antibody and fit to a 1:1 binding model. The steady state KD was determined as the antibody concentration at a response equal to half the maximal response (Rₘₐₓ).
(§2) Binding affinity to human and cynomolgus CD80 and CD86 was determined for CTLA4_anti OX40L fusion proteins and reference CTLA4-Ig proteins using steady state affinity assays as described in section 1.1.8 of Example 1.

[5] = molecular target: T1, recombinant human OX40L protein (R&D …); assay: SPR steady state, Biacore T200; OX40L immobilised on CM5, fusion protein in solution
Protocol: (§3) Recombinant OX40L proteins (human OX40L protein, R&D systems, cat. #1054-OX; cynomolgus monkey OX40L, Novoprotein cat. #CP72) were immobilized onto Biacore CM5 sensor chips and anti-OX40L antibodies were bound to this surface at a range of concentrations. The response at steady state was measured with a Biacore T200 instrument (GE Healthcare) and plotted against the concentration of antibody and fit to a 1:1 binding model. The steady state KD was determined as the antibody concentration at a response equal to half the maximal response (Rₘₐₓ).

[6] = molecular target: T6, recombinant cynomolgus monkey CD86 (Novoprotein cat. #CP41) (cynomolgus monkey, UniProt A0A2K5TTJ8 18-241); assay: BLI steady state, Octet RED96; binder captured on AHC biosensors, cynomolgus CD86 in solution
T6 construct: also called cynomolgus CD86
T6 sequence: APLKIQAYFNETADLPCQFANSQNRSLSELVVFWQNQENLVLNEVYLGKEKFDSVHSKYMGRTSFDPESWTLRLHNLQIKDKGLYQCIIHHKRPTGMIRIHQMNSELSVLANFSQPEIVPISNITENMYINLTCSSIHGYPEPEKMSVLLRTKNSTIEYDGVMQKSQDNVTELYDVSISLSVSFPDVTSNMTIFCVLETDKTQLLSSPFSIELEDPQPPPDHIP
Protocol: Cynomolgus monkey CD86 (Novoprotein cat. #CP41) steady-state affinity was measured with an Octet RED96 instrument (ForteBio) in a BLI assay. The Fc region of experimental CTLA4_anti-OX40L fusion proteins or of CTLA4-Ig reference protein was captured using anti-human IgG Fc Capture (AHC) Biosensors (ForteBio, cat. #18-5060). Recombinant cynomolgus monkey CD86 was bound to this surface at a range of concentrations. The response at steady state was plotted against the concentration of recombinant protein and fit to a 1:1 binding model. The steady state KD was determined as the recombinant protein concentration at a response equal to half the maximal response (Rₘₐₓ).
as §2

[7] = molecular target: T7, recombinant human CD80 (Novoprotein cat. #CK61) (human, UniProt P33681 35-242); assay: SPR steady state, Biacore T200; binder captured by anti-human IgG Fc, CD80 in solution; first number of the cell: human CD80
T7 construct: Bought soluble protein; also called B7.1
T7 sequence: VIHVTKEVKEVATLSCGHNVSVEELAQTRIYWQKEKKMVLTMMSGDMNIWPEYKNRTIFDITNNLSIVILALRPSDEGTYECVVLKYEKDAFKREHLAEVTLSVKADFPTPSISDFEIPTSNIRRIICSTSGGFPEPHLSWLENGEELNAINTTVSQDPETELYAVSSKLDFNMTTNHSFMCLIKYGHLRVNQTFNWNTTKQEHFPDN
Text: as §1

[8] = molecular target: T8, recombinant human CD86 (Novoprotein #C404) (human, UniProt P42081 24-247); assay: SPR steady state, Biacore T200; binder captured by anti-human IgG Fc, CD86 in solution; second number of the cell: human CD86
T8 construct: Bought soluble protein; also called B7.2
T8 sequence: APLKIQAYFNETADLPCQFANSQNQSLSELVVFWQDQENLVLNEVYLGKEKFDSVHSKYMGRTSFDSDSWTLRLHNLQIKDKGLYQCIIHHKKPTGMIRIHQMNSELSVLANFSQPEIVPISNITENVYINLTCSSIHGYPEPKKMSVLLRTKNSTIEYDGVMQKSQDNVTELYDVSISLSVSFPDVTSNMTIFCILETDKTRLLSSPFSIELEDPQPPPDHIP
Text: as §1, §2

[9] = molecular target: T1, recombinant human OX40L protein (R&D …); assay: SPR steady state affinity to human OX40L; second of two numbers in the cell
Protocol: as §3

[10] = molecular target: T1, recombinant human OX40L protein (R&D …); assay: SPR steady state affinity to human OX40L
Protocol: as §3

[11] = molecular target: T4, full-length human OX40L on the cell …; assay: cellular binding to human OX40L (flow cytometry)

Binder	Primary T cell activation assay IC50 [1] [nM]	OX40L neutralization/OX40-HEK Reporter IC50 (AVI-GST-His6-hOX40L) [nM]	binding result [2]	EC50 [3] [nM]	Kd [4] [nM]	Kd [5] [nM]	Kd [6] [nM]	Kd [7] [nM]	Kd [8] [nM]	Kd [9] [nM]	binding result [10]	binding result [11]
CTLA4_anti OX40L fusion protein 67B06 (Fc fusion, also called 67B06(1); 67B06 (1)) heavy: [sequence of about 120 residues not given]EPKSSDKTHTCPPCPAPPVAGPSVFLFPPKPKDTLMISRTPEVTCVVVDVSHEDPEVKFNWYVDGVEVHNAKTKPREEQYNSTYRVVSVLTVLHQDWLNGKEYKCAVSNKALPSSIEKTISKAKGQPREPQVYTLPPSREEMTKNQVSLTCLVKGFYPSDIAVEWESNGQPENNYKTTPPVLDSDGSFFLYSKLTVDKSRWQQGNVFSCSVMHEALHNHYTQKSLSLSPGAGGGGSGGGGSGGGGSQLQLQESGPGLVKPSETLSLTCSVSGGSISTSSYYWGWIRQPPGKGLEWSGSIYYSGSTYYRPSLQGRATISVDTSKNQFSLKLTSVTAADTAVYYCARHRGSYFFDIWGLGTLVTVSSASTKGPSVFPLAPSSKSTSGGTAALGCLVKDYFPEPVTVSWNSGALTSGVHTFPAVLQSSGLYSLSSVVTVPSSSLGTQTYICNVNHKPSNTKVDKRVEPKSC light: SYELTQPLSVSVALGQTARMTCGGSDIENKNVHWYQQKPGQAPVLVIHRDNNRPSGIPERFSGSNSGNTATLTISRAQAGDEADYYCQVRDSNIVVFGGGTKLTVLGQPKAAPSVTLFPPSSEELQANKATLVCLISDFYPGAVTVAWKADSSPVKAGVETTTPSKQSNNKYAASSYLSLTPEQWKSHKSYSCQVTHEGSTVEKTVAPTECS	6.4	7.3	binds	1.5	486	27.6	770	538	670			
CTLA4_anti OX40L fusion protein 89B09 (Fc fusion, also called 89B09(1); 89B09 (1)) heavy: [sequence of about 120 residues not given]EPKSSDKTHTCPPCPAPPVAGPSVFLFPPKPKDTLMISRTPEVTCVVVDVSHEDPEVKFNWYVDGVEVHNAKTKPREEQYNSTYRVVSVLTVLHQDWLNGKEYKCAVSNKALPSSIEKTISKAKGQPREPQVYTLPPSREEMTKNQVSLTCLVKGFYPSDIAVEWESNGQPENNYKTTPPVLDSDGSFFLYSKLTVDKSRWQQGNVFSCSVMHEALHNHYTQKSLSLSPGAGGGGSGGGGSGGGGSEVQLVESGPGLVKPSETLSLTCTVSGVSIRSNGYYWGWIRQSPGKGLEWIGNMDYSGTYQNPSLTSRVTISGDASKNQFSLKLRSVTAADTAVYFCARERSNNWYPIDYWGQGTLVTVSSASTKGPSVFPLAPSSKSTSGGTAALGCLVKDYFPEPVTVSWNSGALTSGVHTFPAVLQSSGLYSLSSVVTVPSSSLGTQTYICNVNHKPSNTKVDKRVEPKSC light: SSELTQDPAVSVALGQTVRITCQGDSVRRFFAHWYQQKPGQAPILVISGKDTRPSGIPDRFSGSISGNTASLTITGAQAEDEADYYCNSRDSSGYLVLFGGGTKLTVLGQPKAAPSVTLFPPSSEELQANKATLVCLISDFYPGAVTVAWKADSSPVKAGVETTTPSKQSNNKYAASSYLSLTPEQWKSHKSYSCQVTHEGSTVEKTVAPTECS	5.4	6.4	binds	4.1	474	71.4	750	540	654	53.1		
CTLA4-Ig (Ref3_CTLA4Ig) (Fc fusion) not shown					433		910	450	663		no binding	no binding
